The whole screen tested about 48,000 compounds, of which about 1,200 (2.5%) were called active. Not shown: some 2% with an inconclusive outcome.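 Rule for the calls: active = activation of at least 60% and not above a set upper limit (about 1 call in 100 departs from these limits); inconclusive = activation of 40% to 60%, or above that upper limit; inactive = activation under 40%.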 The list shows a part of the results.
Each compound was assayed against Probable G-protein coupled receptor 32 (Homo sapiens) (UniProt O75388) (assay: qHTS for Agonists of Human Resolvin D1 Receptor DRV1). Conditions: CHO-K1 GPR32 beta-arrestin PathHunter luminescence, 90 min; at 76.9 µM; active compounds read high; zero percent set by DMSO-only wells.
Procedure, shortened: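 Agonism was scored as beta-arrestin recruitment to ProLink-fused GPR32 in stably transfected CHO-K1 cells, giving a chemiluminescent beta-Gal signal; compounds were incubated 90 min at 37 °C.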
Note: 0% is about no effect.

Chain of UniProt O75388 (O75388 whole entry, looked up, the tested form may be a part): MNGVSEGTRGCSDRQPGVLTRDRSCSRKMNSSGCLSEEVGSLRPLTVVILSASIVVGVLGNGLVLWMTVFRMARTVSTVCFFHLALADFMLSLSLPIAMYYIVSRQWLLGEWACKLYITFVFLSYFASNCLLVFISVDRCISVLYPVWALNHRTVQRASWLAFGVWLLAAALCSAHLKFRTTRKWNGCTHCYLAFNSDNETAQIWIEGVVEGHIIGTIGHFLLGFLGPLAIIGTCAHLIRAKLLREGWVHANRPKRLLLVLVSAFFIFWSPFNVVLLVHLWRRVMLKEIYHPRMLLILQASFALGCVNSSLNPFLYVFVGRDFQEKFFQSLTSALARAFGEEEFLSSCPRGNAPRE

activation, inactive:
CCOC(=O)CSC1=Nc2ccccc2C2=NC(CCC(=O)NCc3ccccc3)C(=O)N12 (centres undefined) 25.1%, COc1ccc(NC(=O)CN(c2cccc(C)c2C)S(=O)(=O)c2ccccc2)cc1OC 12.3%, Cc1cc2c(cc1C)C(c1cccc(OC(C)C)c1)CC(=O)N2 (centres undefined) 36%, CCCCN(C)CCCNC(=O)Cn1nc(CC)n2c(cc3sc(C)cc32)c1=O -34.8%, COc1ccc(C(=O)N2CCN(C(=O)COc3ccc(Br)cc3)CC2)cc1OC 7.25%, CC1CN(C(=O)N2CCC(C(=O)NCCC3=CCCCC3)CC2)c2ccccc2O1 (centres undefined) -9.03%, COc1cc2c(=O)c(S(=O)(=O)c3ccc(C)cc3)cn(Cc3cccc(C)c3)c2cc1OC -2.61%, CCCCNC(=O)C1CCCN(c2nnc(C)c3c(C)n(-c4ccc(Cl)cc4)nc23)C1 (centres undefined) 0.781%, O=C(CSc1nnc(-c2cccs2)o1)Oc1ccc(Cl)cc1 5.87%, COc1cc([C@@H]2c3cc4c(cc3[C@H](O)C3COC(=O)[C@@H]32)OCO4)cc(OC)c1OC (some centres undefined) -7.02%, CSc1cccc(NC(=O)C2CCN(S(=O)(=O)c3ccc4[nH]c(=O)ccc4c3)CC2)c1 26.1%, CC(=O)c1ccc(NC(=O)CSc2nccn2Cc2ccco2)cc1 -16.1%, CCN(CC)CCN(C(=O)c1ccc(C(=O)OC)cc1)c1nc2ccc(Cl)cc2s1 15.9%, CCOC(=O)C1(C)C=C(Nc2ccc(C)cc2)C(=O)N1c1ccccc1 (centres undefined) -2.68%, COc1cc(Cl)c(C)cc1NC(=O)c1cnn(-c2ccc(C)cc2)c1-n1cccc1 -6.48%, c1coc(-c2nc3ccccn3c2Nc2ccc3c(c2)OCCO3)c1 2.25%, CCOc1ccc(NC(=O)CCS(=O)(=O)c2ccc3nc(C)sc3c2)cc1 -11.4%, Cc1nc(-c2ccc(C)c(N3CCN(C(=O)Nc4ccc(Br)cc4)CC3)c2)no1 -0.389%, CCn1cc(S(=O)(=O)c2cccc(C)c2)c(=O)c2cc(F)c(N3CCCCC3C)cc21 (centres undefined) 0.457%, COc1ccc(-n2c(=O)c3sc4ccccc4c3n(CC(=O)N3CCCC3)c2=O)cc1 -8.99%, Cc1ccc(Cn2c(SCc3ccc(C(=O)NCCc4ccccc4)cc3)nc3ccncc32)cc1 -21.3%, COc1ccc(-c2cn3c(n2)sc2cc(C(=O)Nc4ccccc4F)ccc23)cc1 -5.15%, COc1ccc(-n2c(SCC(=O)N3CCCc4ccccc43)nc3c([nH]c4ccccc43)c2=O)cc1 34.6%, CN(C)CCNC(=O)c1ccc2nc(CCc3ccccc3)oc2c1 10.3%, CCc1ccc2occ(CC(=O)Nc3c(C(=O)Nc4ccc(Cl)cc4)oc4ccccc34)c2c1 -2.73%, Cc1cc(-c2ccc(C)c(S(=O)(=O)N(Cc3cccs3)C(C)C)c2)on1 -14.9%, COc1ccc(NC(=O)/C(C#N)=C/c2ccc(C)o2)cc1 12%, CC(C)(C)OC(=O)N1CCC(c2c(C(=O)Nc3ccc4c(c3)OCO4)cnn2-c2ccc(F)cc2F)CC1 -22.5%, Cc1ccc(CNC(=O)C(=O)NCC(c2cccs2)S(=O)(=O)c2cccs2)cc1 (centres undefined) -12.1%, CC1CCCN(c2ncnc3c2nc2n3CCCCC2)C1 (centres undefined) 20.8%, CN(C)c1ccc(CNc2nc(-c3ccco3)nn2S(C)(=O)=O)cc1 -15.1%, O=C(O)CCCC(=O)N1CCc2cc(S(=O)(=O)NCc3ccccc3)ccc21 5.51%, CCOC(=O)c1[nH]c2c(c1Cc1ccccc1)C(=O)CC(c1ccc(OC)cc1)C2 (centres undefined) -8.64%, Cc1cccc(NC(=O)CCNS(=O)(=O)c2ccc3c(c2)CCCC(=O)N3)c1C 9.61%, Cc1ccccc1Cn1c(=O)n(CCCCC(=O)NCCc2ccccc2)c(=O)c2ccccc21 13.8%, CCc1ccc(NC(=O)CSC2=Nc3ccccc3C3=NC(CC(=O)NCc4ccc5c(c4)OCO5)C(=O)N23)cc1 (centres undefined) -12.2%, CN(C)c1ccc(NC(=O)Cn2c(SCc3ccc(F)cc3)nc3cccnc32)cc1 -15.4%, CCCCCC[C@@H](CCC)C(=O)O -4.98%, CCc1ccccc1NC(=O)CC(C)n1nc(C)cc1C (centres undefined) -0.387%, CCOC(=O)c1c(S(=O)(=O)N2CCN(c3ccccc3OC)CC2)c(C)n(C)c1C -2.39%, Cc1ccc(N2C(=O)c3n[nH]c(C)c3C2c2ccc(C(C)C)cc2)cc1 (centres undefined) 22.3%, COc1cccc(C(=O)Nc2ccccc2-c2nc(-c3ccc(C)cc3)no2)c1 2.33%, c1ccc(N2CCN(c3ncnc4[nH]ncc34)CC2)cc1 45.9%, COc1cc(OC)c(NC(=O)NCc2ccc3c(c2)CCN3C(C)=O)cc1Cl -13.2%, O=c1c2cc3c(cc2n(Cc2cccc(F)c2)c(=O)n1Cc1nc(-c2ccccc2)no1)OCO3 -9.78%, CCCCC(CC)CN1CN(CC(CC)CCCC)CC(C)(N)C1 (centres undefined) 5.74%, COc1cc2c(cc1OC)C(=O)C(CC1CCN(Cc3ccccc3)CC1)C2 (centres undefined) 3.93%, CCc1ccc(NCc2cc3ccc(OC)cc3n(CC(=O)Nc3cccc(Cl)c3C)c2=O)cc1 -21.5%, COc1ccc(S(=O)(=O)N(CCc2ccccc2)CC(=O)NCc2ccccc2)cc1OC 13.3%, Cc1ccc(Cl)cc1NC(=O)c1cccc(NC(=O)N2CCSc3ncccc32)c1 4.96%, CCOc1ccc(NC(=O)C2CCCN(c3nnc(-n4c(C)ccc4C)s3)C2)cc1 (centres undefined) -16.3%, CC(C)(C)OC(=O)N1CCC(c2c(C(=O)N3CCN(C(=O)c4ccco4)CC3)cnn2-c2ccc(Cl)cc2)CC1 -2.57%

activation, active:
CC(C)c1ccc(S(=O)(=O)Nc2ccc(O)c(Sc3nc4ccccc4s3)c2)cc1 70.6%, COCCN1C(=O)c2[nH]nc(-c3c(C)cc(C)cc3O)c2C1c1cccc(O)c1 (centres undefined) 85%
